Results: PubChem BioAssay AID504339 (National Center for Advancing Translational Sciences (NCATS), 2011)
Among all 390,000 compounds or so, about 17,000 (4.4%) were called active. Inconclusive results, whose numbers are uncertain, are shown with a selection of clear calls. The call rests on the fitted dose curve; in most records, active means well fitted inhibition curve with a large enough effect; inconclusive means small, poorly fitted or top-dose-only effect; inactive means no such curve, though single readings can be large or run the other way. Potencies of inconclusive entries are doubtful fits and often do not repeat.

Target: Lysine-specific demethylase 4A (Homo sapiens) (UniProt O75164)
UniProt O75164, sequence (O75164 whole entry, looked up, the tested form may be a part): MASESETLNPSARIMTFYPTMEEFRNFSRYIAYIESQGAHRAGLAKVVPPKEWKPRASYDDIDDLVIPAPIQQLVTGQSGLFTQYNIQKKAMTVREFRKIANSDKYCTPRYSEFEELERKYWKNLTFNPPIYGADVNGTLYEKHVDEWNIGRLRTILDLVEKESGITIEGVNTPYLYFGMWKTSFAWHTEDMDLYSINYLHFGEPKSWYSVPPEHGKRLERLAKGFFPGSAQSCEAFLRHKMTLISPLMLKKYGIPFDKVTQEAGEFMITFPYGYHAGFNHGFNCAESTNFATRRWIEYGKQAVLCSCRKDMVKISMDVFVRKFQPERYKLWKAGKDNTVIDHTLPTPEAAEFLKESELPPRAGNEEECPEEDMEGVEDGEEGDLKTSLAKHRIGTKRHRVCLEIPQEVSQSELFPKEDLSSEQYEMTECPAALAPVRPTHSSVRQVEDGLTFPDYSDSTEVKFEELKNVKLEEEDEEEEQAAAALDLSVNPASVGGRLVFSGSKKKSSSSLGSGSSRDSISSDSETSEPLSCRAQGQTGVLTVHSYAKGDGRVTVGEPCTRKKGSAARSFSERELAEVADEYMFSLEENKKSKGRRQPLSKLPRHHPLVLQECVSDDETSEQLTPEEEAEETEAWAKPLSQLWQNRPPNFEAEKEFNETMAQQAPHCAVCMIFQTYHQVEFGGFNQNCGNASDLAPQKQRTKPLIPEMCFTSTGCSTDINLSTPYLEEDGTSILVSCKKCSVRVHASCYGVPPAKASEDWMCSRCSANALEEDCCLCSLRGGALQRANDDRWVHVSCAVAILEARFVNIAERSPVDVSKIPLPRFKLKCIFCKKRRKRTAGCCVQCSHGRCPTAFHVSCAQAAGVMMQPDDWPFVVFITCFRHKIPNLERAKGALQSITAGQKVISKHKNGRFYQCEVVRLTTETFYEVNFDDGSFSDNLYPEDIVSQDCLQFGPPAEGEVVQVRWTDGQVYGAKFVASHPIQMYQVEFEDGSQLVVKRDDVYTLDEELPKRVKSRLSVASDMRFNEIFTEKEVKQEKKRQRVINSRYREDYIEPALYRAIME
Experiment: qHTS Assay for Inhibitors of JMJD2A-Tudor Domain; further: nearly all actives have a fitted effect of over 50% in size
Details: AlphaScreen JMJD2A-Tudor / H3K4me3 peptide binding; activity change, negative = inhibition: at 114 µM (top of the series)
On the % scale 0 is the no-effect control and ±100 the full control effect; potency means the concentration at half of the fitted maximal effect; tags describe the fitted curve by direction and shape.

Potency, active:
S=c1[nH]nc(Cc2ccccc2)n1-c1ccccc1 3.98 µM
O=C(O)Cn1c2ccccc2c2n[nH]c(=S)nc21 20 µM
Cc1ccccc1CN(C)CC(=O)Nc1cccc(S(=O)(=O)N(C)c2ccccc2)c1 79.4 µM
Oc1cccc2ccc(Nc3ccccn3)nc12 17.8 µM
Cc1ccccc1CN1CCc2nc(Nc3ccc4c(c3)OCCO4)ncc2C1 35.5 µM
Cc1nnc(N2C(=O)C(O)=C(C(=O)c3ccco3)C2c2ccc(F)cc2)s1 (stereo not given) 56.2 µM
COc1ccc(C(c2nnnn2Cc2ccccc2)N2CCN(c3nc4ccccc4s3)CC2)cc1OC (stereo not given) 79.4 µM
COC1=C(Br)C(=O)c2ncccc2C1=O 6.31 µM
Cc1cc(N=CC2=C(O)CC(C)(C)CC2=O)no1 79.4 µM
Cc1cccc(OCCCCn2nnc3sc4c(c3c2=O)CCC(C)C4)c1 (stereo not given) 70.8 µM
O=C(c1ccc(=O)oc1)N1CCCc2ccccc21 50.1 µM
CCN(CC)c1ccc(NC(=O)Nc2cccc(C(C)=O)c2)cc1 35.5 µM
O=C1C=CC(=O)N1c1ccc2ccccc2c1 17.8 µM
c1nnc(NC2=NCCC2)s1 8.91 µM
COc1cc(CNc2ccc3[nH]c(=O)[nH]c3c2)cc(Br)c1OCC(=O)NC(C)(C)C 56.2 µM
CCN1CCN(CCOc2cccc(Cl)c2Cl)CC1 3.98 µM
C/C=C/c1ccc(OCCCNC)c(OC)c1 1.12 µM
O=C(O)c1ccc2c(=O)[nH]c(CN3CCOCC3)nc2c1 35.5 µM

Potency, inconclusive:
COC(=O)c1sc(SC)c(S(=O)(=O)C(C)C)c1N/N=C(\C#N)C(=O)c1ccccc1 50.1 µM [inhibitor, partial curve]
CN1CCN(C(=O)c2ccc(Oc3ccc([N+](=O)[O-])cc3)cc2)CC1 56.2 µM [inhibitor, partial curve, poor fit]
O=c1[nH]c(Cc2ccc(F)cc2)nc2scc(-c3ccc(F)cc3)c12 70.8 µM [inhibitor, single point]
CCCc1cc(=O)oc2c(C)c(OCC(=O)Nc3cccnc3)ccc12 100 µM [inhibitor, single point]
Cc1cccc(NC(=O)CN(C)C(=O)c2ccc(N3CCCCCC3)c([N+](=O)[O-])c2)c1C 79.4 µM [inhibitor, partial curve]
C=CCC1(C#N)C(=S)NC(C)=C(C(=O)OCC)C1c1ccccc1 (stereo not given) 89.1 µM [inhibitor, partial curve]
CC1CCN(c2ccc(NC(=S)NC(=O)c3ccco3)cc2)CC1 56.2 µM [inhibitor, partial curve, poor fit]
COc1cc(CNCCNC(=O)c2nonc2N)ccc1OCc1ccc(Cl)nc1 22.4 µM [inhibitor, partial curve]
CC(=O)N[C@@H](Cc1c[nH]c2ccccc12)C(=O)OCc1cc(C(F)(F)F)cc(C(F)(F)F)c1 89.1 µM [inhibitor, partial curve]
C=CCn1c(SCCOc2ccc(OC)cc2)nnc1C(NC(=O)c1ccc(OC)cc1)C(C)C (stereo not given) 56.2 µM [inhibitor, partial curve]
O=C(Nc1nc(-c2ccco2)c(-c2ccco2)s1)c1ccc(F)cc1F 50.1 µM [inhibitor, partial curve]
O=C(COc1ccccc1[N+](=O)[O-])NNC(=O)Nc1cccc2ccccc12 79.4 µM [inhibitor, partial curve]
CCCCOc1ccc(-c2cc(C(=O)NNC(=S)NCC)c3ccccc3n2)cc1 44.7 µM [inhibitor, partial curve]
CC(OC(=O)c1ccc2ncsc2c1)C(=O)N(C)C1CCCCC1 (stereo not given) 39.8 µM [inhibitor, single point]
COc1cc(C(Nc2ccc3c(c2)OCO3)C(=O)NC2CCCCC2)cc(OC)c1OC (stereo not given) 79.4 µM [inhibitor, partial curve]
O=C1CCCC2=C1C(c1ccco1)Nc1ccc(C(=O)c3ccccc3)cc1N2 (stereo not given) 56.2 µM [inhibitor, partial curve]
Cc1ccc2c(c1)c1c3n2CCNC3CCC1 (stereo not given) 50.1 µM [inhibitor, partial curve]
COc1ccc(-c2c(C)nn3c(C(F)(F)F)cc(-c4ccc(Br)cc4)nc23)cc1 2.82 µM [inhibitor, full curve]
Cc1ccc2[nH]c(O)c(N=NC(=O)c3ccc(NS(=O)(=O)c4cccs4)cc3)c2c1 25.1 µM [inhibitor, partial curve, poor fit]
COc1ccc(-c2oc(NC(=O)CSc3ncn[nH]3)c(C#N)c2-c2ccc(OC)cc2)cc1 35.5 µM [inhibitor, partial curve]
CN1CC(c2ccc(C#N)cc2)C2(COc3ccccc3C2=O)C12C(=O)Nc1ccccc12 (stereo not given) 50.1 µM [inhibitor, partial curve, poor fit]
NC(=S)N/N=C/c1ccccc1OCc1cccc(Cl)c1 50.1 µM [inhibitor, partial curve]
Cc1ccc2c(c1)Sc1c(ccc3ccccc13)N2 44.7 µM [inhibitor, partial curve]
O=C(O)c1ccc(/C=N\Nc2ccccn2)cc1 79.4 µM [inhibitor, partial curve]
COc1ccc(-n2c(/C=C/c3cc(OC)c(OC)cc3OC)nc3cc4ccccc4cc3c2=O)cc1Cl 44.7 µM [inhibitor, partial curve]
O=C(Cn1nc(N2CCN(c3ccccc3)CC2)ccc1=O)NCc1cccc(Cl)c1 100 µM [inhibitor, partial curve]
COc1ccc2[nH]c3nc(SCC(=O)NC4CC4)nnc3c2c1 0.708 µM [inhibitor, full curve]
Cc1nnc(SCC2=C(C(=O)O)N3C(=O)C(NC(=O)Cn4nc(C(F)F)c(Cl)c4C)C3SC2)s1 (stereo not given) 39.8 µM [inhibitor, single point]
Cc1cc(N)ccc1-n1c(C)ccc1C 44.7 µM [inhibitor, partial curve]
CNc1oc(Cc2ccccc2)nc1S(=O)(=O)c1ccc(Cl)cc1 89.1 µM [inhibitor, single point]
CN(C)/C(CN1CCCCC1)=C1\N=C(c2ccccc2)OC1=O 31.6 µM [inhibitor, partial curve]
CCN(CCCNC(=O)c1cc2c(=O)[nH]c3ccc(C)cc3c2s1)c1ccc(C)cc1 3.55 µM [inhibitor, full curve]
CCCNc1nc(NCc2ccccc2OC)c2cnn(C)c2n1 70.8 µM [inhibitor, single point]
Cc1cc(=O)oc2cc(Oc3ccc([N+](=O)[O-])cc3[N+](=O)[O-])ccc12 44.7 µM [inhibitor, partial curve]
Cc1cccc(CN2C(=O)CC(c3ccc(Cl)cc3)c3c(C)nn(-c4nc(C)cc(C)n4)c32)c1 (stereo not given) 79.4 µM [inhibitor, partial curve]
CC(=O)Nc1cccc(/C(C)=N/NC(=O)c2cccc(S(=O)(=O)N3CCOCC3)c2)c1 39.8 µM [inhibitor, single point]

Potency, inactive:
Cc1ccc(CNC(=O)CCc2c(C)nn(-c3ccc(N4CCCC4)nn3)c2C)cc1
CSC1=C(C#N)C(c2ccccc2Cl)C(C(=O)c2cccs2)C(O)(C(F)(F)F)N1 (stereo not given)
O=C1C=C(c2ccc(F)c(Cl)c2)C[C@@H](c2ccc(F)cc2)C1
COc1ccccc1CCC(=O)OCC(=O)Nc1ccc(C(N)=O)cc1
COC(=O)NC1CCC(NC(=O)OC)CC1 (stereo not given)
COCCn1c(=O)[nH]c2cc(C(=O)NCC3CCCO3)ccc2c1=O (stereo not given)
CCCCSc1nnc(-c2ccc(NC(=O)CCc3ccccc3)cc2)n1C
CCCCn1c(N)c(N(CCOC)C(=O)CSc2nnc(-c3ccco3)n2CC)c(=O)[nH]c1=O
CC(C)Cn1c(SCC(=O)Nc2cc(Cl)c(Cl)cc2Cl)nc(O)cc1=O
CCN(CC)CCNC(=O)C1CCN(S(=O)(=O)c2c(C)noc2/C=C/c2ccccc2F)CC1
CNC(=O)CSc1nc2nc(C)cc(C)n2n1
CNC(=O)COC(=O)c1cc(SC)ccc1Cl
CCN(CC)CCNC(=O)c1ccc(CS(=O)(=O)c2ccccc2C)o1
CN(C(=O)c1cccc(NC(=O)Cc2ccc(NC(=O)C3CCCN(C(=O)C4CCCC4)C3)cc2)c1)C1CC1 (stereo not given)
COc1ccccc1Nc1nc(N)nc(CSC(=S)N2CCOCC2)n1
Cc1ccc2nc(N(Cc3cccnc3)C(=O)c3ccc4c(c3)OCCO4)sc2c1
CCCN1C(=O)c2ccccc2CC1(C)C(=O)NC1CCCCC1 (stereo not given)
CCOc1ccccc1CNC(=O)c1cnc2sc(N3CCCC3)nn2c1=O
CCc1ccc(NC(=O)C(CC)n2nnc(C(=O)OC)c2C(=O)OC)cc1 (stereo not given)

Activity change, negative = inhibition, inactive:
C=CCNC(=O)C(C)Sc1ccc(Cl)cc1 (stereo not given) -19.8% [at 11.4 µM]
O=C(Cc1cccs1)Nc1cccc(C(=O)Nc2ccc(C(=O)O)cc2)c1 -12.8% [at 11.4 µM]
